Whole data set: some 33,000 sequences, median “E-score (-0.5 to 0.5)” near -0.032, cut for the highest 2% near 0.36. Some of the results follow.
What follows are sequences tested against T1, Sko1 (UniProt Q02100) (assay: PBM E-score (8-mer binding enrichment) (E-score (-0.5 to 0.5)); higher = stronger / more preferred TF binding; most listed sequences are background and not binding sites). Conditions: protein concentration: 200 nM; construct: GST-full length.
T1 sequence: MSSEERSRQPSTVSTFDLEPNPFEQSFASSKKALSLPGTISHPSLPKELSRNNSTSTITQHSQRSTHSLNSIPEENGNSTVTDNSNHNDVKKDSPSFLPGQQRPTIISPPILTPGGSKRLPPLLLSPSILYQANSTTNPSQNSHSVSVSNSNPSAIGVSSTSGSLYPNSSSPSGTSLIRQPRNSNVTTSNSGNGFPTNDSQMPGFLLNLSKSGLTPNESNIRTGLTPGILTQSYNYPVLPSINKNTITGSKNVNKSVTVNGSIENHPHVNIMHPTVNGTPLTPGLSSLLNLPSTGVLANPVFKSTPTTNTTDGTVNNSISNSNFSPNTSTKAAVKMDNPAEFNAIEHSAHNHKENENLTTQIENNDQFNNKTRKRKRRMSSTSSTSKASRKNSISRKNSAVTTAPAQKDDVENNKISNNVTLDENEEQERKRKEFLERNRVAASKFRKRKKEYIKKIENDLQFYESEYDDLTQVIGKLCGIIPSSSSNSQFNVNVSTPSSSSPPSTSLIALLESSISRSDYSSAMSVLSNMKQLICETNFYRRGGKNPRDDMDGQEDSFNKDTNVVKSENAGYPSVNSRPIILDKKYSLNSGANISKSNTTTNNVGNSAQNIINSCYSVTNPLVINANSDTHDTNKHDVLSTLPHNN
Summary of the method: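 Yeast transcription factors, full-length or as DNA-binding domains, were expressed with a GST tag using PURExpress in vitro transcription/translation. At about 100-200 nM they were applied to universal all-10-mer Agilent arrays, double-stranded by primer extension on fresh or once-stripped slides. Fluorescent anti-GST detected bound protein, and masliner normalised the scans. E-scores for ungapped eight-base words, pooled with reverse complements, came from the Universal PBM Analysis Suite.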

Sequence	PBM E-score
CCACAGCG	-0.138
GCCCGCCA	-0.175
CCTTGATC	-0.155
CGCCCCAG	-0.141
ACATGAAG	-0.0534
CACAATGG	0.094
CATCATTA	0.359
GAGCATGC	-0.262
AGCGGCGG	-0.267
AGCATATA	0.0246
TTATATAA	0.298
GGGTCAGA	-0.219
CTCTACAA	-0.111
AGATACAA	0.254
CACCGAGA	-0.266
CCAACTGC	-0.196
ACAGCGGA	-0.0805
AAGCGGGA	-0.108
AACCGCAC	0.0215
AGGGAATA	0.0115
TATATATA	0.204
ATGCATGG	0.0564
AGACCTCC	-0.313
ATCTGGTA	-0.0293
GTAAGTTA	0.219

Sequence	PBM E-score
CAAGCATC	-0.0904
ACGTACGC	0.453
CGTTATTA	0.303
ACAAGGAC	-0.133
CTCGTCTC	-0.19
CTCTTCAG	-0.151
GAAGTGGC	-0.0533
CCTACGGA	-0.182
GCCGTTTA	-0.0691
CGTTTGTA	0.162
AGGCGCTG	-0.187
ATGTTCAC	0.0503
CCGACATC	-0.0792
GAGAATCA	-0.096
TATCCGCA	0.124
GATGTCAA	0.123
ATTCCAGA	0.107
CATGGGGA	-0.068
CATGCTCC	-0.152
AGTGCGGG	-0.0259
CGACCAAG	-0.00522
TGGAAAAA	-0.0546
AGTACTAG	0.00268
CTTTTGAC	0.074
AGAACAGA	-0.0893

Sequence	PBM E-score
CGATAAAA	0.148
ACCCTTAC	0.0887
CCTCAGGC	-0.163
CTTTCAAC	0.044
AACCTTGC	-0.168
AGGGTTAG	-0.0357
CGGACTCC	-0.273
GTCGTCCA	-0.127
ACATATGA	0.273
AAGACCGG	-0.284
CGGTGAAC	-0.0247
CACGTCTG	0.23
CAGCTAGG	-0.334
ACGTCACA	0.481
CGATATAG	0.0481
GCGGAACA	-0.223
GGGCGACC	-0.351
AAATACAC	0.23
CAACTGCA	0.0816
AGCGCCCC	-0.402
CACGCTCG	-0.0628
CTTTGTTA	0.135
AGTGCAAA	0.158
ACCCGTCA	0.173
ATTATGAC	0.349

Sequence	PBM E-score
CGGGACCC	-0.434
CTTGAGGA	-0.102
AATGGGAC	-0.215
CACGATCG	0.0307
GTGAGCAC	0.108
CAGGTGCA	-0.177
CAAATCGG	-0.117
CAACATAA	0.194
AGTGGGTG	0.00734
AACCCTGG	-0.228
CTTTTTGA	0.11
CCTTGACA	-0.0728
ACTTAGCC	0.0535
AATGTGTG	0.0774
CGCTGTTA	0.00349
ACATATCT	0.231
GTGTCGAA	-0.00179
CCACCACA	-0.0881
AACAAAGG	-0.0827
CCGACTTA	-0.0229
AGCAGGAG	-0.268
ATTGTGTA	0.302
AGAGTCAG	-0.121
AACCTAAA	0.172
AGATGATA	0.215

Sequence	PBM E-score
CACACTTC	0.0732
CCCGTCAA	-0.0876
CATTGCCG	-0.134
AGTAGACA	0.0699
GAAGCCAC	-0.0963
GAAGCAGA	-0.0531
AAACAGCT	-0.0726
GATGAATA	0.239
AGGTACGA	0.053
TAGAGCCA	-0.278
CATGAGTC	0.122
AATGAATC	-0.0655
CACTTCTG	-0.0181
CACTAATC	-0.097
AGCTGCTA	-0.0523
GCTACGAC	0.0459
CATTTTTA	0.0589
CAGCGCGC	-0.234
AACGACTC	-0.129
ACCGGCAG	-0.357
CTGGAAAC	0.162
GCTACACA	-0.0795
CTACATTC	-0.116
GGAAAACC	-0.128
GCCCGTCA	-0.00134

Sequence	PBM E-score
ATTGGGAA	-0.0523
CTATTCCC	-0.282
GACGTTCA	0.187
GCGGCCCA	-0.33
TGCTTTAA	0.0254
AATCCTGA	0.0387
CATGTTCA	-0.136
CCCTTACA	-0.174
CCGAGTGC	-0.279
CACGAATC	0.12
CGTATACA	0.372
ATTAGTAA	0.182
GAGCCCTA	-0.272
ATCGTTCG	-0.0266
GTTCTTGA	0.0936
CATCCATC	-0.238
GCGTCGAC	0.0596
CTCGAACC	-0.216
CACAGGAG	-0.071
CTGTGTGC	0.00517
CGCTACGA	0.122
CGTGCCCC	-0.0366
TAACAGTA	0.126
ACGTTACT	0.334
CATTGTCG	0.0277

Sequence	PBM E-score
AACACAAA	0.0722
TCAAAGCA	0.0567
ACAGTCAA	-0.0134
GCGAGCTA	0.032
AGAGTAAA	0.155
GGACGCAA	0.164
ATAGTAAC	0.0331
ATGCGTCC	-0.124
CAGGCTAG	-0.353
ACGCACGA	0.295
CTGTGAAA	0.135
ATAGTTCG	0.0481
AAATTCCT	-0.126
CGTGTCAG	0.184
CCTCCAGC	-0.349
ATATACAT	0.236
GAAACTAC	0.227
CATTGTAG	-0.0326
CTTGTTCC	-0.0407
AGGTATTG	0.114
ACGACCTC	0.0397
ATTGTTTA	0.193

Source: the supplement of paper PMC3334620
